Like-named read-outs stand apart in the source and are kept apart here.
Key:
Human DNA pol γ = molecular target: T1, Human DNA pol γ (Homo sapiens, UniProt P54098)
T1 sequence (P54098 1-1239): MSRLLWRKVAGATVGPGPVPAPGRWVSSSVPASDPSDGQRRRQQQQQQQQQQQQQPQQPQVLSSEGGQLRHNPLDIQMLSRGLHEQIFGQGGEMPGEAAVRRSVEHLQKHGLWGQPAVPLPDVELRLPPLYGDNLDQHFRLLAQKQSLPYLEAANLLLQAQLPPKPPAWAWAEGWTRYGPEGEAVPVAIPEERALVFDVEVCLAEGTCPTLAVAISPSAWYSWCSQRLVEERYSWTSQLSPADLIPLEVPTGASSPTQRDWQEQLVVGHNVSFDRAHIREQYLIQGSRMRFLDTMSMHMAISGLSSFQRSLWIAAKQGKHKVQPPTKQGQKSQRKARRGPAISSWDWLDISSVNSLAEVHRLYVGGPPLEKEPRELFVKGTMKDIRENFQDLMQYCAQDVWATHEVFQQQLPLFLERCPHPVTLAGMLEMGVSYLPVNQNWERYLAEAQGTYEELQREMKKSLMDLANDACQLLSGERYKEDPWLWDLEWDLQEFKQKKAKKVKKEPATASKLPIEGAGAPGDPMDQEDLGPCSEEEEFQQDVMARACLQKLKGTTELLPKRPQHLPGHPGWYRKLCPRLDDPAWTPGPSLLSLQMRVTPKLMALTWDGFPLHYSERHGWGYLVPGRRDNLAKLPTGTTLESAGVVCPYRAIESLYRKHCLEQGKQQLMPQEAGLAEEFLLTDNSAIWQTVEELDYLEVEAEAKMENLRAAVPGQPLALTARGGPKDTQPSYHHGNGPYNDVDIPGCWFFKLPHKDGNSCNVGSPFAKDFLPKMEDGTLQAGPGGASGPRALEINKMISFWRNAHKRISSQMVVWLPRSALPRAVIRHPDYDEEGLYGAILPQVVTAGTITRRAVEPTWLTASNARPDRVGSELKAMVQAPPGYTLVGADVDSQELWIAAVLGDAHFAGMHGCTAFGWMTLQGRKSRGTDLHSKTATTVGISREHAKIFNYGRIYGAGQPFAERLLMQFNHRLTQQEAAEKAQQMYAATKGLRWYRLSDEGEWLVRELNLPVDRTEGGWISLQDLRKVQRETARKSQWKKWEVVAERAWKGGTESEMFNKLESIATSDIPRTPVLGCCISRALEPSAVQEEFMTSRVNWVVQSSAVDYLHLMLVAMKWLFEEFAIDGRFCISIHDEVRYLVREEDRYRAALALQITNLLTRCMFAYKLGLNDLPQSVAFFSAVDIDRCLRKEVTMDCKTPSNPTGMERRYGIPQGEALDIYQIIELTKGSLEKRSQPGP
T1 sequence (Q9UHN1 26-485 partner limits assumed): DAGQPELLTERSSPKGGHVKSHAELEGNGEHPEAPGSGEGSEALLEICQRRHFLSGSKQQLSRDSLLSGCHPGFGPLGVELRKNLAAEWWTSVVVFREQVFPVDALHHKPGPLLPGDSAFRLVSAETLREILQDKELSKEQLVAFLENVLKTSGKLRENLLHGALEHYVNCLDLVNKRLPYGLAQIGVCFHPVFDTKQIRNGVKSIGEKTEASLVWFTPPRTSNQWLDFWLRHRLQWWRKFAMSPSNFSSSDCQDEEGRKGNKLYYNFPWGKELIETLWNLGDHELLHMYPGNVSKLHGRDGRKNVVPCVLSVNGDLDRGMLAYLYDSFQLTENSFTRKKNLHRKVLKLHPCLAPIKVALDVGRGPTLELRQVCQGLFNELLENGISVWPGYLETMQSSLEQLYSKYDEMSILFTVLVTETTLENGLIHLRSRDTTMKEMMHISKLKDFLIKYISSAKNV

Human DNA polymerases β = Human DNA polymerases β (Homo sapiens, UniProt P06746)
[1] = up to concentrations of 100 µM, the highest concentration tested, listed as triphosphate form of L-dC

Nc1ccn([C@@H]2C[C@@H](O)[C@H](COP(=O)(O)OP(=O)(O)OP(=O)(O)O)O2)c(=O)n1 [L-dC-TP]
inhibition of human DNA polymerase γ (Human DNA pol γ; [1]): not inhibitory
inhibition of human DNA polymerase β (Human DNA polymerases β; [1]): not inhibitory

Nc1ccn([C@H]2CC[C@@H](COP(=O)(O)OP(=O)(O)OP(=O)(O)O)O2)c(=O)n1 [ddC-TP, reference compound]
inhibition of human DNA polymerase β (Human DNA polymerases β; 5 µM): 50%

Nc1ncnc2c1ncn2[C@@H]1CC[C@H](COP(=O)(O)OP(=O)(O)OP(=O)(O)O)O1 [L-ddA-TP, reference compound]
IC50 (Human DNA pol γ; read-out: IC50 Human DNA pol γ): > 100 µM
IC50 (Human DNA polymerases β; read-out: IC50 Human DNA pol β): > 100 µM
